Assay results: PubChem BioAssay (NCATS)
Where “and” joins values, the source holds several entries; their conditions need not be identical. Equal values may be shown once. This list was built around the results that the source calls inconclusive (neither active nor inactive); the mix of calls is not that of the screen. For part of these data: Potencies of inconclusive entries are doubtful fits and often do not repeat. Calls of active or inactive are those of the source. Unless noted, calls come from the whole dose curve; as a rule, active = well fitted curve in the direction sought with a large enough effect; inconclusive = small, poorly fitted or top-dose-only effect, or another doubt; inactive = no such curve, though single readings can be large; an effect the other way counts as inactive or inconclusive.

Key:
[1] = qHTS of pediatric cancer cell lines to identify multiple opportunities for drug repurposing: Primary screen for A673 cells (AID 1347092); details: A673 Ewing sarcoma viability, CellTiter-Glo ATP luminescence, 48 h; activity change, negative = cytotoxic: at 46 µM (top of the series); note: nearly all actives have a fitted effect of over 45% in size; note: potency is the fitted concentration of half-maximal effect
Outline: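 Cell viability of A673 measured by CellTiter-Glo ATP luminescence after 48 hours compound exposure. Dilution series spanned 0.78 nM to 46 µM (MIPE, 11-point) or 0.59 nM to 46 µM (NPC, 8-point); bortezomib 2.3 uM positive control.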

[2] = qHTS of pediatric cancer cell lines to identify multiple opportunities for drug repurposing: Primary screen for SK-N-SH cells (AID 1347098); note: potency is the fitted concentration of half-maximal effect; nearly all actives have a fitted effect of over 65% in size
Outline: (§1)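 Cells (500-1,000/well) rested 5 h, then received compounds for 48 h; metabolically active cells were measured by CellTiter-Glo luminescence. Final concentrations spanned up to 46 µM (MIPE, 11-point) or 0.59 nM-46 µM (NPC, 8-point) in primary screens, 11-point in follow-ups.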

[3] = A High-Content qHTS Against Drug Library for the Identification of Small Molecules that Inhibit DYT1 Early Onset Primary Dystonia-Associated Cell Pathology (AID 1645839; calls by dose curve; note: potency is the fitted concentration of half-maximal effect)
Outline: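 Induced EGFP-delE TorsinA cells are imaged after 48 h of compound treatment. Punctate fusion-protein distribution gives the %pathology value, while nuclei counts flag toxicity. Wild-type EGFP-hTOR1A cells define the normal pattern.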

[4] = system: WaGa; assay: qHTS assay to identify novel small-molecules to repurpose for Merkel cell carcinoma treatment (AID 1296009); details: MCC and control cell lines, CellTiter-Glo viability, 72 h; series mostly up to 46 µM; note: nearly all actives have a fitted effect of over 60% in size; note: potency is the fitted concentration of half-maximal effect
Outline: (§2)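 Luminescence from CellTiter-Glo, read 10 min after addition at room temperature, reported viability following a 72 hr, 37 degree celsius treatment with NPC or MIPE compounds in titration; values normalized to plate controls.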

[5] = system: SKOV3; assay: Primary qHTS to identify gynecologic anti-cancer compounds using libraries of approved drugs and bioactive compounds (AID 1345084); details: Gynecologic cancer cell panel viability, ATPlite luminescence, 48 h; series mostly up to 57.5 µM; note: nearly all actives have a fitted effect of over 55% in size; note: potency is the fitted concentration of half-maximal effect
Outline: (§3)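 Cytotoxicity screen measuring ATP content by luciferase luminescence. Each compound is applied at five concentrations for 48 h at 37 C with 5% CO2.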

[6] = Primary qHTS for small molecule stabilizers of the endoplasmic reticulum resident proteome: Secreted ER Calcium Modulated Protein (SERCaMP) assay (AID 1508630); details: SH-SY5Y GLuc-SERCaMP (Gaussia luciferase released on ER calcium loss) secretion, thapsigargin, luminescence; series mostly up to 38.4 µM; note: potency is the fitted concentration of half-maximal effect
Outline: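 The SH-SY5Y reporter protocol was run at 3 concentrations up to 38.3 uM (primary) or 11 concentrations (follow-up): 16 h compound, 100 nM thapsigargin for 4 h, then extracellular luciferase luminescence.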

[7] = system: UISO; assay: qHTS assay to identify novel small-molecules to repurpose for Merkel cell carcinoma treatment (AID 1296009); details: MCC and control cell lines, CellTiter-Glo viability, 72 h; series mostly up to 46 µM; note: nearly all actives have a fitted effect of over 60% in size; note: potency is the fitted concentration of half-maximal effect
Outline: as §2

[8] = qHTS of pediatric cancer cell lines to identify multiple opportunities for drug repurposing: Primary screen for SK-N-MC cells (AID 1347093); details: SK-N-MC viability, CellTiter-Glo luminescence, 48 h; activity change, negative = cytotoxic: at 46 µM (top of the series); note: potency is the fitted concentration of half-maximal effect
Outline: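 Metabolically active cells were quantified by ATP-dependent luminescence (CellTiter-Glo, 15 min at room temperature) following 48 h treatment. Cells had been plated at 500-1,000 per well and settled for 5 h beforehand.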

[9] = qHTS of pediatric cancer cell lines to identify multiple opportunities for drug repurposing: Primary screen for OHS-50 cells (AID 1347103); details: OHS-50 osteosarcoma viability, CellTiter-Glo luminescence, 48 h; activity change, negative = cytotoxic: at 57.3 µM (top of the series); note: nearly all actives have a fitted effect of over 40% in size; note: potency is the fitted concentration of half-maximal effect
Outline: as §1

[10] = Drug repurposing screens with cells derived from glioblastoma tumor samples (AID 1345199); details: GBM patient neurospheres viability, ATP luminescence, 48 h; Potency: tumour line A unless noted; series mostly up to 46 µM; note: nearly all actives have a fitted effect of over 40% in size; note: potency is the fitted concentration of half-maximal effect
Outline: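 Primary testing used CD133+ neurospheres from four GBM patients, seven concentrations, 48 h exposure and ATP-based viability; confirmation added three slower-growing patient lines.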

[11] = system: DIV17; assay: qHTS profiling for inhibitors of Plasmodium falciparum proliferation (AID 504749); note: nearly all actives have a fitted effect of over 60% in size; note: potency is the fitted concentration of half-maximal effect; details: P. falciparum in erythrocytes, SYBR Green DNA, 72 h; activity, negative = inhibition: at 28.7 µM (top of the series)
Outline: (§4)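 Fluorescence of SYBR Green-bound parasite DNA, read at 485/535 nm, served as the growth measure. Infected erythrocytes were cultured with compound 72 h; artemisinin (0.29 uM) and DMSO wells defined the normalization range.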

[12] = system: W2; assay: as above; details: P. falciparum in erythrocytes, SYBR Green DNA, 72 h; activity, negative = inhibition: at 28.7 µM (top of the series)
Outline: as §4

[13] = qHTS of pediatric cancer cell lines to identify multiple opportunities for drug repurposing: Primary screen for BT-37 cells (AID 1347094)
Outline: (§5)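 500-1,000 cells/well; 5 h pre-incubation 37 °C/5% CO2; compound pinned; 48 h; CellTiter-Glo, 15 min RT; luminescence. MIPE 11-pt from 0.78 nM, NPC 8-pt from 0.59 nM final. Bortezomib 2.3 µM final as positive control.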

[14] = Primary qHTS for inhibitors of nuclear receptor binding SET domain protein 2 (NSD2) in an RCH-ACV wild type WT cells (2C) (AID 1645877); details: activity change, negative = cell killing: at 44.9 µM (top of the series) unless noted; note: nearly all actives have a fitted effect of over 70% in size; note: potency is the fitted concentration of half-maximal effect
[15] = Primary qHTS for inhibitors of nuclear receptor binding SET domain protein 2 (NSD2) in an isogenic RCH-ACV NSD2 p.E1099K mutant (9B) (AID 1645876); details: activity change, negative = viability loss: at 44.9 µM (top of the series) unless noted; note: potency is the fitted concentration of half-maximal effect; nearly all actives have a fitted effect of over 70% in size
[16] = system: CAOV3; assay: Primary qHTS to identify gynecologic anti-cancer compounds using libraries of approved drugs and bioactive compounds (AID 1345084); details: Gynecologic cancer cell panel viability, ATPlite luminescence, 48 h; series mostly up to 57.5 µM; note: nearly all actives have a fitted effect of over 55% in size; note: potency is the fitted concentration of half-maximal effect
Outline: as §3

[17] = qHTS of pediatric cancer cell lines to identify multiple opportunities for drug repurposing: Primary screen for Saos-2 cells (AID 1347097); details: Saos-2 viability, CellTiter-Glo ATP luminescence, 48 h; activity change, negative = cytotoxic: at 46 µM (top of the series); note: potency is the fitted concentration of half-maximal effect; nearly all actives have a fitted effect of over 40% in size
Outline: as §5

Measured: Potency
Tags give direction and shape of the fitted curve.

FC(F)(F)c1ccccc1-n1ccnc1
inactive: [1] | [3] | [4] | [5]
inconclusive: [2] 43.3 µM [cytotoxic, single point]

O=C1CC(c2ccc(Cl)cc2)CC(=O)N1
inconclusive: [6] 11.2 µM [inhibitor, full curve]
inactive: [7]

Nc1c2c(nc3ccccc13)CCCC2O (configuration not stated)
inconclusive: [7] 15 µM [inhibitor, single point] | [10] 35.5 µM [inhibitor, single point] | [11] 12 µM [inhibitor, partial curve, poor fit]
inactive: [8] | [9] | [3] | [12]

NCC1CCC(C(=O)Oc2ccc(CCC(=O)O)cc2)CC1 (configuration not stated)
inactive: [8] | [13] | [14] | [4]
inconclusive: [6] 35.5 µM [inhibitor, partial curve, poor fit] | [10] 22.4 µM [inhibitor, partial curve]

O=C(O)C(Cc1cc(I)c(O)c(I)c1)c1ccccc1 (configuration not stated)
inactive: [6] | [4] | [10]
inconclusive: [8] 0.0033 µM [cytotoxic, full curve, poor fit] | [2] 2.73 µM [cytotoxic, full curve] | [3] 14.1 µM [inhibitor, single point] | [14] 10.6 µM [inhibitor, partial curve]

COc1cc2ncnc(Nc3cccc(Cl)c3F)c2cc1OC(=O)N1CCN(C)C[C@H]1C
inconclusive: [15] 10.5 µM [inhibitor, partial curve, poor fit] and 23.1 µM [inhibitor, single point] | [14] 18.6 µM [inhibitor, partial curve, poor fit] and 29.1 µM [inhibitor, single point] | [16] 0.562 µM [cytotoxic, full curve, poor fit] | [5] 0.0891 µM

COCCCC/C(=N\OCCN)c1ccc(C(F)(F)F)cc1
inconclusive: [1] 33.5 µM [cytotoxic, single point] | [8] 33.5 µM [cytotoxic, single point] | [17] 26.6 µM [cytotoxic, single point] | [2] 43.3 µM [cytotoxic, single point] | [9] 27.6 µM [cytotoxic, single point] | [6] 11.2 µM [inhibitor, single point] and 28.2 µM [inhibitor, single point] | [3] 35.5 µM [inhibitor, single point] | [15] 21.1 µM [inhibitor, single point] | [14] 26.6 µM [inhibitor, single point] | [16] 28.2 µM [cytotoxic, single point] | [5] 39.8 µM [cytotoxic, single point]
